Measurements published in PubChem BioAssay AID504332 (National Center for Advancing Translational Sciences (NCATS), 2011).
Hit rate of the full screen: of about 350,000 compounds, about 31,000 (8.9%) were called active. This list was built around the results that the source calls inconclusive (neither active nor inactive); the mix of calls is not that of the screen. Calls follow the shape of the dose curve; as a rule, active = well fitted inhibition curve with a large enough effect; inconclusive = small, poorly fitted or top-dose-only effect; inactive = no such curve, though single readings can be large or run the other way. Where the call is inconclusive, the potency comes from a doubtful curve fit.

Target: Histone-lysine N-methyltransferase EHMT2 (Homo sapiens) (UniProt Q96KQ7)
Sequence of UniProt Q96KQ7 (Q96KQ7 whole entry, looked up): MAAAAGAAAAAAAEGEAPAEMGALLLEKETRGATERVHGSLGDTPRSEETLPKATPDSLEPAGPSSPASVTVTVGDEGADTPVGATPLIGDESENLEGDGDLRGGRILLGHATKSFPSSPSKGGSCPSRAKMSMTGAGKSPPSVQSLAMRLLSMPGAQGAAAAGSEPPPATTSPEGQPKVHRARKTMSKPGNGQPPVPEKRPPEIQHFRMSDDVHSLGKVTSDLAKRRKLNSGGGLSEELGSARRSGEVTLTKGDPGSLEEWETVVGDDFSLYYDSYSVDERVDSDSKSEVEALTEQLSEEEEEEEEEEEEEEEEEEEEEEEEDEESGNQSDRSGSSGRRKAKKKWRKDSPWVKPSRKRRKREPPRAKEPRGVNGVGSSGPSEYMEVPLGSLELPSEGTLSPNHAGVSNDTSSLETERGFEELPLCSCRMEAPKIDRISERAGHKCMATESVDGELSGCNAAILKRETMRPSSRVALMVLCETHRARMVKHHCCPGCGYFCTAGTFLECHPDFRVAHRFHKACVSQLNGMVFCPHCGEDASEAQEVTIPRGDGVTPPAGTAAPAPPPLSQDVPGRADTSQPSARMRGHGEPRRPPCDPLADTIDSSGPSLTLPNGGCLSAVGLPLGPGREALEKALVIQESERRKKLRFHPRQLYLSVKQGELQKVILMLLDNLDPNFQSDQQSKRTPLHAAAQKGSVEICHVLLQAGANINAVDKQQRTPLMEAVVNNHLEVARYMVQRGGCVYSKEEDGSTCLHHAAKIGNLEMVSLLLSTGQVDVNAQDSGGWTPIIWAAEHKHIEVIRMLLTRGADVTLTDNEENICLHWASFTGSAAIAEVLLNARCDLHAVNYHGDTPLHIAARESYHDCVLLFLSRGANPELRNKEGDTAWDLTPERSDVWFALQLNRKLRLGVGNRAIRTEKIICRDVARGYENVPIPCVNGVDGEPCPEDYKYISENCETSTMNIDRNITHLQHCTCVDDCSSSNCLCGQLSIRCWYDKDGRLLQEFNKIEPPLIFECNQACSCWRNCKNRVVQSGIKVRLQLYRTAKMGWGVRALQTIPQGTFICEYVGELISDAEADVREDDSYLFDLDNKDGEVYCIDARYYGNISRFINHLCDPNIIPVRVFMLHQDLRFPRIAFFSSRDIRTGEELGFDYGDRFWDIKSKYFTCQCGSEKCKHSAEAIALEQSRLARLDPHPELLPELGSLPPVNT
Assay: qHTS Assay for Inhibitors of Histone Lysine Methyltransferase G9a; also: nearly all actives have a fitted effect of over 75% in size
Conditions: G9a H3K9 monomethylation, AlphaScreen, 2 h; activity, negative = inhibition: at 59 µM (top of the series) unless noted
Outline: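 G9a (20 nM) preincubated 15 min RT with compounds, then 500 nM biotinylated H3K9 peptide and 20 uM SAM added; 2 h RT reaction. Monomethyl-H3K9 product detected by AlphaScreen with anti-H3K9me1 antibody, streptavidin donor and anti-rabbit IgG acceptor beads.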
% is scaled to controls: 0 for no effect and ±100 for the full control effect; potency is read from the fitted curve at half-maximal effect; tags tell the direction and shape of the fitted curve.

Row | Compound | Potency | activity, negative = inhibition
1 | Cc1cc(NC(=O)CSc2nc(=O)n(CCN(C)C)c3c2CCCC3)no1 | inconclusive: 89.1 µM [inhibitor, single point] | –
2 | COc1ccc(CC(=O)n2nc(-c3cccnc3)nc2N)cc1 | inconclusive: 2.24 µM [inhibitor, single point] | –
3 | COc1cc(C2C(C#N)=C(N)N(c3cccnc3)C3=C2C(=O)CCC3)ccc1O (centres undefined) | inconclusive: 100 µM [inhibitor, single point] | –
4 | NCCNc1ccc([N+](=O)[O-])c(Sc2nc3ccccc3[nH]2)c1 | inconclusive: 79.4 µM [inhibitor, single point] | –
5 | O=C(NCCc1nc2ccccc2[nH]1)/C(=C/c1ccc(F)cc1)NC(=O)c1ccco1 | inactive | –
6 | Cc1ccc2c(c1)cc(CN(Cc1ccco1)C(=O)COc1ccccc1)c1nnnn12 | inconclusive: 89.1 µM [inhibitor, single point] | –
7 | COc1ccc(NC(=O)CCc2c(C)nc3nc(CNC(=O)c4cccc(F)c4)nn3c2C)cc1OC | inconclusive: 89.1 µM [inhibitor, single point] | –
8 | CCN(CCNC(=O)C1CCN(S(=O)(=O)c2cccc3cccnc23)CC1)c1ccccc1 | inconclusive: 28.2 µM [inhibitor, partial curve, poor fit] | –
9 | CC(=O)NC(=S)NNC(=O)c1ccc(Br)cc1 | active: 8.91 µM | –
10 | CCOC(=O)c1c(C)[nH]c(C)c1C(=O)CSc1nc2ccccc2c(=O)n1-c1ccc(F)cc1 | inconclusive: 3.55 µM [inhibitor, full curve, poor fit] | –
11 | CCOc1cccc2sc(N(CCN(C)C)C(=O)/C=C/c3cccs3)nc12 | inactive | –
12 | Cc1c(C)c2cc3c(C)coc3cc2oc1=O | inconclusive: 1 µM [inhibitor, single point] | –
13 | N#Cc1c(-c2ccccc2)cc(-c2ccccc2)nc1SCC(O)CS(=O)(=O)Cc1ccc(Cl)cc1 (centres undefined) | active: 1.78 µM | –
14 | COCC(=O)N1CCC2(CC1)CN(C(=O)Nc1ccc(OC)cc1)C2 | – | inactive: -22% [at 12.7 µM]
15 | CCn1nc(C)c(NS(=O)(=O)c2ccc(C)cc2)c1C | inactive | –
16 | COc1ccc(NC(=O)CSc2ccccc2)c([N+](=O)[O-])c1 | inconclusive: 44.7 µM [inhibitor, partial curve, poor fit] | –
17 | CCn1c(=O)cc(OCC(=O)NCCCN2CCCC2=O)c2ccccc21 | inconclusive: 89.1 µM [inhibitor, partial curve, poor fit] | –
18 | Cn1nnc2cc(C(=O)NCc3ccco3)ccc21 | inconclusive: 28.2 µM [inhibitor, partial curve, poor fit] | –
19 | c1cn(-c2ncnc3ccc(-c4ccoc4)cc23)cn1 | – | inactive: -1.31% [at 0.501 µM]
20 | CCc1c(C)sc(NC(=O)c2ccc(Br)o2)c1C(=O)OC | inactive | –
21 | Fc1ccccc1CSc1nncn1NCc1cccs1 | inconclusive: 39.8 µM [inhibitor, single point] | –
22 | O=C(Nc1ccccc1)C1CCCN1S(=O)(=O)c1cccs1 (centres undefined) | inconclusive: 89.1 µM [inhibitor, partial curve, poor fit] | –
23 | Cc1cccnc1NC(=O)CSc1ncnc2sc(C)c(C)c12 | active: 50.1 µM | –

Row | Compound | Potency | activity, negative = inhibition
24 | S=C(NCc1ccco1)N1CCN(c2ccc(Cl)cc2)CC1 | – | inconclusive: -58% [inhibitor]
25 | CCCCn1c(/N=C/c2ccc(N(C)C)cc2)nc2ccccc21 | inconclusive: 39.8 µM [inhibitor, single point] | –
26 | CN(C)c1ccc(Nc2ncnc3c2c(-c2ccccc2)cn3-c2cccc(Cl)c2)cc1 | active: 8.91 µM | –
27 | C=CCOCCN(CC)CC | inactive | –
28 | CC(C)c1cccc(C(C)C)c1NC(=O)CCN1C(=O)NC2(CCCC2)C1=O | – | inactive: -9.06% [at 2.33 µM]
29 | COc1ccc(NC(=O)c2c[nH]c(=O)n(-c3ccc(C)c(C)c3)c2=O)cc1OC | inactive | –
30 | COC(=O)c1cc(C(=O)Nn2cnnc2)cc([N+](=O)[O-])c1 | inconclusive: 89.1 µM [inhibitor, single point] | –
31 | COC(=O)c1cccc(NC(=O)CN2CCN(Cc3ccccc3)CC2)c1 | – | inconclusive: -69.7% [inhibitor]
32 | Cc1c(NC(=O)c2cccs2)cccc1-c1nc2ccccc2s1 | inconclusive: 28.2 µM [inhibitor, single point] | –
33 | COc1cc(NC(=O)C2=C(N3CCOCC3)/C(=C\c3ccc(N(C)C)cc3)CCC2)cc(OC)c1OC | inconclusive: 17.8 µM [inhibitor, partial curve, poor fit] | –
34 | CCOC(=O)c1c(S(=O)(=O)NCc2ccc(OC)cc2)c(C)n(C)c1C | inactive | –
35 | COCCNC(=O)Cn1nc(C)c2ccccc2c1=O | inconclusive: 79.4 µM [inhibitor, partial curve] | –
36 | CCNc1ncc2nc(-c3ccc(Cl)cc3)c(=O)n(C3CC3)c2n1 | – | inactive: 0.234% [at 12.7 µM]
37 | COc1cccc(OC)c1C(=O)Oc1ccc2c(c1)O/C(=C\c1ccncc1)C2=O | inconclusive: 20 µM [inhibitor, single point] | –
38 | Cc1c(Br)c(-c2n[nH]c(=S)n2Cc2ccco2)nn1C | active: 10 µM | –
39 | O=C(Nc1ccc(Cl)c(Cl)c1)Nc1nccs1 | – | inconclusive: -51.3% [inhibitor]
40 | CCOC(=O)C1=C(C)Nc2ccccc2N/C1=N\S(=O)(=O)c1cc(C(=O)O)ccc1Cl | inconclusive: 2.51 µM [inhibitor, partial curve, poor fit] | –
41 | Nc1c2c(nc3ccc(Br)cc13)N(Cc1ccccc1)CC2 | inconclusive: 39.8 µM [inhibitor, single point] | –
42 | Cc1cc(C)n(-c2ncc3c(n2)N(C)CCOC3=O)n1 | inconclusive: 89.1 µM [inhibitor, single point] | –
43 | CC1=N/C(=C/c2cc(Br)cc(Br)c2O)C(=O)O1 | inconclusive: 89.1 µM [inhibitor, single point] | –
44 | COc1cc(C2NC(C(=O)O)Cc3c2[nH]c2ccccc32)cc(OC)c1OC (centres undefined) | – | inconclusive: -83.4% [inhibitor]
45 | CCOC(=O)N1CCN(c2ccc(C(C)=O)cc2F)CC1 | inconclusive: 39.8 µM [inhibitor, single point] | –
46 | CCN(CC)P(=O)(Nc1ccccc1Br)c1ccc(N(C)C)cc1NC(=O)c1ccco1 (centres undefined) | inactive | –

Row | Compound | Potency | activity, negative = inhibition
47 | CC(C)(C)OC(=O)N1CCC(c2c(C(=O)NC3CCCCC3)cnn2-c2ccc(F)cc2F)CC1 | inactive | –
48 | CSc1ccccc1NC(=O)CCS(=O)(=O)c1nc(-c2ccc3c(c2)OCO3)cc(C(F)(F)F)n1 | inconclusive: 25.1 µM [inhibitor, single point] | –
49 | CC(NCCOCCOc1ccccc1)c1ccccc1 (centres undefined) | inactive | –
50 | COc1ccc(OCCCC(=O)OCC(=O)Nc2ccc(Cl)cn2)cc1 | inconclusive: 89.1 µM [inhibitor, partial curve, poor fit] | –
51 | O=C(COC(=O)C1CCN(S(=O)(=O)c2ccccc2C(F)(F)F)CC1)NCc1ccc(F)cc1 | inconclusive: 89.1 µM [inhibitor, partial curve, poor fit] | –
52 | CC(=O)N(/C=C1\SC(=S)N(c2ccccc2)C1=O)c1ccccc1 | inconclusive: 28.2 µM [inhibitor, partial curve, poor fit] | –
53 | CCOc1c(Cl)cc(CNc2ccc(N3CCCC3)cc2)cc1OC | active: 2.82 µM | –
54 | COC(=O)c1ccc(NC(=O)C(=O)N2CCN(C(=S)Nc3ccc(OC)cc3)CC2)cc1 | inactive | –
55 | COc1ccc(Nc2c3c(nc4ccc(C)cc24)CCC3)cc1 | inconclusive: 70.8 µM [inhibitor, single point] | –
56 | COc1cc(-c2nc(S(=O)(=O)c3ccc(C)cc3)c(N3CCOCC3)o2)cc(OC)c1OC | – | inconclusive: -128% [inhibitor]
57 | COC(=O)C(Cc1ccc(O)cc1)NC(=O)CCc1nc2ccccc2s1 (centres undefined) | active: 39.8 µM | –
58 | CCC(C)NC(=O)C1(NC(=O)Nc2ccccc2)CCCCC1 (centres undefined) | inactive | –
59 | Oc1c(C(Nc2ccccn2)c2ccccc2F)ccc2cccnc12 (centres undefined) | inconclusive: 25.1 µM [inhibitor, single point] | –
60 | CC1=C(C(=O)OCc2cc(C)on2)N2C(=O)[C@@H](NC(=O)OCc3cc(C)on3)[C@H]2SC1 | – | inactive: 10.1% [at 0.501 µM]
61 | COc1cccc(CNC(=O)Cn2ncn3nc(-c4cccs4)cc3c2=O)c1 | inconclusive: 28.2 µM [inhibitor, partial curve, poor fit] | –
62 | CN1CCN(CCOc2cccc(Cl)c2)CC1 | inconclusive: 89.1 µM [inhibitor, single point] | –
63 | COC(=O)c1c(C)[nH]c(C(=O)OCc2ccc(F)cc2)c1C | inconclusive: 89.1 µM [inhibitor, partial curve, poor fit] | –
64 | O=C(CCNS(=O)(=O)c1ccccc1)OCC(=O)c1ccc(Cl)cc1 | inconclusive: 50.1 µM [inhibitor, partial curve] | –
65 | Cc1nn(CCC(=O)NNC(=S)Nc2ccc(F)cc2)c(C)c1Br | inconclusive: 28.2 µM [inhibitor, partial curve, poor fit] | –
66 | C=CCn1c(SCC(C)=O)nnc1-c1ccc2ncccc2c1 | – | inconclusive: -66.6% [inhibitor]
67 | C/C(N)=C(/C#N)C(=O)CSc1nnc(Nc2cccc(C)c2C)s1 | – | inconclusive: -63.8% [inhibitor]
68 | Nc1cnn(Cc2ccc(F)cc2)c1 | inconclusive: 79.4 µM [inhibitor, single point] | –
69 | O=C(O)CCCNc1c(C(=O)Nc2ccc(Cl)cc2)cc([N+](=O)[O-])cc1[N+](=O)[O-] | inconclusive: 89.1 µM [inhibitor, single point] | –
